Consider 44 sequences from the supplement of paper PMC11417369.

± gives the standard deviation of the averaged measurements. The list shows a part of the results.

The assay deals with PfAP2-G AP2 domain (GST-tagged). Nature of the assay: gcPBM binding intensity (ln(normalized median fluorescence intensity)); higher = stronger DNA binding. Put shortly:
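For binding intensity, the highest Masliner-normalised natural-log median intensity across replicate spots of either probe orientation was taken. Protein bound to the array was stained with Alexa488 anti-GST antibody and scanned at 488 nm. The protein, GST-tagged P. falciparum DNA-binding domains from E. coli at about 25 μg on average, had been applied for 1 h to an Agilent 4 × 180k array of primer-extended double-stranded 36-bp intergenic genomic probes and negative controls.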
For TAAAATAATATTTATGTGCACATATAATTATTAATT, the “gcPBM binding intensity (ln)” value was 10.4 ± 0.31.

“TGTGTAGCTAGGGGGTTGCTAATTTTTGTTTTGACC [CACACA_negctrl_site634]”: the “gcPBM binding intensity (ln)” value came out at 10.9 ± 0.57.

“TTATATATACCATAATGTACTCTATTATATAAAAAA [XGTACX_site7464]”: the “gcPBM binding intensity (ln)” value is 11.1 ± 0.8.

Consider “TTTGTGCTTATCCTAACACACACAACATATAAGAAA [CACACA_site9091]”, for which the “gcPBM binding intensity (ln)” value was 10.3 ± 0.37.

Take “ATATATATTTTTATAACACACAATGATGTACATTAC [CACACA_site1076]”: the “gcPBM binding intensity (ln)” value worked out at 11.3 ± 0.84.

For “ATTCAATAAACGTATTGTACAAAAGAACGATATATT [XGTACX_site2533]”, the “gcPBM binding intensity (ln)” value stood at 10.7 ± 0.35.

In the case of “TATTGGATCACACAAAAATGTATAAATAAATAGAAA [TGCATGCA_negctrl_site490]”, the “gcPBM binding intensity (ln)” value stood at 10.07 ± 0.099.

“AAGACAAATTGTGACACACACAAAAAAAAAAAAAAA [CACACA_site3727]”: the “gcPBM binding intensity (ln)” value came out at 10.2 ± 0.48.

As for “AAAAAAATAAGGTGCACACAAAAAAAAAAAAAAAAA [CACACA_site812]”, the “gcPBM binding intensity (ln)” value came out at 10.6 ± 0.82.

Regarding “TTATGTTGCGAGTTCTTAAGATATAAAAAATTCTTC [GTGCAC_negctrl_site45]”, the “gcPBM binding intensity (ln)” value was 9.85 ± 0.057.

On to “ATCATAACTTGATACGCACACGTTATATAAATAAAA [CACACA_site4955]”, for which the “gcPBM binding intensity (ln)” value is 10.5 ± 0.4.

Consider “TGAGAATAAAAAAAAGGGATTATTAGATTTCTCCTT [TGCATGCA_negctrl_site326]”, for which the “gcPBM binding intensity (ln)” value is 9.45 ± 0.23.

As to “AATGTAAATAAGTGTACACATATATAATACATACAT [CACACA_site4938]”, the “gcPBM binding intensity (ln)” value was found to be 11.6 ± 0.91.

On to “GATTCATTTCGTAATACACACAACAAATATTTCAAA [CACACA_site1772]”, for which the “gcPBM binding intensity (ln)” value stood at 10.1 ± 0.16.

“TACCTTATATTATATACACACATATAATATAATATA [CACACA_site1328]”: the “gcPBM binding intensity (ln)” value was found to be 9.97 ± 0.11.

For the sequence “AATTAAAGGAATTACAACTTTGCAAGCGCAACATAA [CACACA_negctrl_site1411]”, the “gcPBM binding intensity (ln)” value amounted to 9.835 ± 0.021.

“TTCTTTATATATGTTCGTACATATTATTATAATACA [XGTACX_site1549]”: the “gcPBM binding intensity (ln)” value amounted to 11.2 ± 0.63.

Turning to “TATTAAAAAATTATATGTACACATTTGTTATATACA [XGTACX_site2232]”, the “gcPBM binding intensity (ln)” value worked out at 11.6 ± 0.85.

Turning to “ATAAAAAAATAAATAACACACAAAATTACACGAAAA [CACACA_site3620]”, the “gcPBM binding intensity (ln)” value turned out to be 10.01 ± 0.049.

Consider “TATGTCCATATTTCCACACACATATTATTTTTATAT [CACACA_site3798]”, for which the “gcPBM binding intensity (ln)” value was found to be 11 ± 0.67.

“GTACACATATATATATATATATATATATATATATAT [CACACA_negctrl_site800]”: the “gcPBM binding intensity (ln)” value is 10.6 ± 0.44.

In the case of “TTTTTTTTTTTTTTTTGTACTCATACATACTATTAT [XGTACX_site989]”, the “gcPBM binding intensity (ln)” value was determined as 11.3 ± 1.1.

Consider AGTAATTATTTTAGAGTGCATAGTTTTTTAATAAAT, for which the “gcPBM binding intensity (ln)” value came to 10.1 ± 0.11.

As for “AAATATATTTTTAATAGTACAATATGAAAATTTCAT [XGTACX_site2562]”, the “gcPBM binding intensity (ln)” value was found to be 11 ± 0.63.

As for “AAAAAAAAGGAAATAACACACATGTATATATTTATA [CACACA_site1606]”, the “gcPBM binding intensity (ln)” value was 9.89 ± 0.071.

Consider “CACCATGTTAACAATACATGCATCACTATATAAATG [TGCATGCA_site36]”, for which the “gcPBM binding intensity (ln)” value was 10.2 ± 0.12.

Regarding “TGCCTTATTAAAAGAATTACACATATTTAATCGAAA [GTGCAC_negctrl_site153]”, the “gcPBM binding intensity (ln)” value is 9.79 ± 0.14.

“ATTCATAACAAAAAAAGTACTCAAAATAATAATAAA [XGTACX_site6079]”: the “gcPBM binding intensity (ln)” value worked out at 11.6 ± 0.83.

For the sequence “TAATTTTCATGTTCATGTACTTAAATATAAGGTAAA [XGTACX_site3284]”, the “gcPBM binding intensity (ln)” value turned out to be 11.3 ± 0.71.

For the sequence “TTTTATTAATATTGCATGCACACTATATAATAATTG [CACACA_site1049]”, the “gcPBM binding intensity (ln)” value amounted to 10.07 ± 0.085.

Turning to “CGGAAAAATTAAAGCACACAAAAAAAAATAAAAAAA [CACACA_site1133]”, the “gcPBM binding intensity (ln)” value came out at 10 ± 0.22.

Regarding “AATATTTCTTTAATTTGTACATATAAGGGAAAATAA [XGTACX_site6221]”, the “gcPBM binding intensity (ln)” value was found to be 10.9 ± 0.59.

Regarding “AAAAAACATACATACACACACATAAATATTTATATT [CACACA_site7300]”, the “gcPBM binding intensity (ln)” value is 10.03 ± 0.035.

For “CACAGATAAATTAACACACACACACCGATATATATA [CACACA_site6049]”, the “gcPBM binding intensity (ln)” value was 10 ± 0.23.

For the sequence “TTTTTATTATTTTAAAGTACTCTTTAGTAATTCCCT [XGTACX_site5863]”, the “gcPBM binding intensity (ln)” value was 11.1 ± 0.76.

“CTTAGGTGTTCATAGAGTACAAATAAAAAAATAAGA [XGTACX_site2294]”: the “gcPBM binding intensity (ln)” value turned out to be 11.3 ± 0.95.

For “ATATATATTTTAATAACACACATATATTATATTATA [CACACA_site4387]”, the “gcPBM binding intensity (ln)” value came to 9.79 ± 0.11.

As for “TCATTCTAAATATAAACACACATAAATAAATACATT [CACACA_site5788]”, the “gcPBM binding intensity (ln)” value amounted to 9.905 ± 0.078.

As to “ACGTTACATACATATACACACACATATATATATATA [CACACA_site8203]”, the “gcPBM binding intensity (ln)” value came out at 10.2 ± 0.16.

As to “TATATATATTATTATGCATGTAATAAAACAAATAAT [TGCATGCA_site625]”, the “gcPBM binding intensity (ln)” value came out at 9.855 ± 0.007.

In the case of “GGTGGTGGTGGGTGGGTGCTTCTATTATTATATTAT [GTGCAC_site9391]”, the “gcPBM binding intensity (ln)” value stood at 11.3 ± 0.61.

With GATGTTTCTATTTTAGTGCATTTTAAATAAATAAAT, the “gcPBM binding intensity (ln)” value was found to be 10.1 ± 0.26.

For the sequence “ATTTCTTCTTTTTTTGTGAAACTGGAATATATATAT [XGTACX_negctrl_site527]”, the “gcPBM binding intensity (ln)” value was 10.1 ± 0.18.

Take “ATAAAGAAACATATATGTACTTATATATATATATAT [XGTACX_site5625]”: the “gcPBM binding intensity (ln)” value is 11.3 ± 0.95.
